Changes are numbered by the printed parent chain; changes in the protein carry UniProt numbers. The list shows a part of the results.

The labels stand for the following.
T1: RBFOX1 RRM (Homo sapiens, UniProt Q9NWB1 109-208)
T1 sequence: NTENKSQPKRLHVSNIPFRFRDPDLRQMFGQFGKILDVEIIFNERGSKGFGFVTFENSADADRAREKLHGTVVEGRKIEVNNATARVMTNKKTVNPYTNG

B1: UCUAAUC (DNA:RNA)
RNA: GGGAGACCGGAAUUCAGAUUGUCCUCUAAUCUUAAAUCCCGUCGUAGCCACCA
DNA 1: CAATCTGAATTCCGGTCTCCC
DNA 2: TGGTGGCTACGACGGGATT
B2: UGGAAUC (DNA:RNA)
RNA: B1 RNA with C26G, U27G
DNA 1: CAATCTGAATTCCGGTCTCCC
DNA 2: TGGTGGCTACGACGGGATT
B3: CCGGGUC (DNA:RNA)
RNA: B1 RNA with U25C, U27G, A28G, A29G
DNA 1: CAATCTGAATTCCGGTCTCCC
DNA 2: TGGTGGCTACGACGGGATT
B4: UAUGGAG (DNA:RNA)
RNA: B1 RNA with C26A, A28G, A29G, U30A, C31G
DNA 1: CAATCTGAATTCCGGTCTCCC
DNA 2: TGGTGGCTACGACGGGATT
B5: UACGGAC (DNA:RNA)
RNA: B1 RNA with C26A, U27C, A28G, A29G, U30A
DNA 1: CAATCTGAATTCCGGTCTCCC
DNA 2: TGGTGGCTACGACGGGATT
B6: UUCUGCU (DNA:RNA)
RNA: B1 RNA with C26U, U27C, A28U, A29G, U30C, C31U
DNA 1: CAATCTGAATTCCGGTCTCCC
DNA 2: TGGTGGCTACGACGGGATT
B7: UCUUACA (DNA:RNA)
RNA: B1 RNA with A28U, U30C, C31A
DNA 1: CAATCTGAATTCCGGTCTCCC
DNA 2: TGGTGGCTACGACGGGATT
B8: UACGCCC (DNA:RNA)
RNA: B1 RNA with C26A, U27C, A28G, A29C, U30C
DNA 1: CAATCTGAATTCCGGTCTCCC
DNA 2: TGGTGGCTACGACGGGATT
B9: GGCACGC (DNA:RNA)
RNA: B1 RNA with U25G, C26G, U27C, A29C, U30G
DNA 1: CAATCTGAATTCCGGTCTCCC
DNA 2: TGGTGGCTACGACGGGATT
B10: ACUUGAG (DNA:RNA)
RNA: B1 RNA with U25A, A28U, A29G, U30A, C31G
DNA 1: CAATCTGAATTCCGGTCTCCC
DNA 2: TGGTGGCTACGACGGGATT
B11: AUAGAAC (DNA:RNA)
RNA: B1 RNA with U25A, C26U, U27A, A28G, U30A
DNA 1: CAATCTGAATTCCGGTCTCCC
DNA 2: TGGTGGCTACGACGGGATT
B12: CUUAGCC (DNA:RNA)
RNA: B1 RNA with U25C, C26U, A29G, U30C
DNA 1: CAATCTGAATTCCGGTCTCCC
DNA 2: TGGTGGCTACGACGGGATT
B13: UGAACAA (DNA:RNA)
RNA: B1 RNA with C26G, U27A, A29C, U30A, C31A
DNA 1: CAATCTGAATTCCGGTCTCCC
DNA 2: TGGTGGCTACGACGGGATT
B14: GGGAGGC (DNA:RNA)
RNA: B1 RNA with U25G, C26G, U27G, A29G, U30G
DNA 1: CAATCTGAATTCCGGTCTCCC
DNA 2: TGGTGGCTACGACGGGATT
B15: GUGAACU (DNA:RNA)
RNA: B1 RNA with U25G, C26U, U27G, U30C, C31U
DNA 1: CAATCTGAATTCCGGTCTCCC
DNA 2: TGGTGGCTACGACGGGATT
B16: CCUAUGG (DNA:RNA)
RNA: B1 RNA with U25C, A29U, U30G, C31G
DNA 1: CAATCTGAATTCCGGTCTCCC
DNA 2: TGGTGGCTACGACGGGATT
B17: AAGCCAC (DNA:RNA)
RNA: B1 RNA with U25A, C26A, U27G, A28C, A29C, U30A
DNA 1: CAATCTGAATTCCGGTCTCCC
DNA 2: TGGTGGCTACGACGGGATT
B18: CUUGAUC (DNA:RNA)
RNA: B1 RNA with U25C, C26U, A28G
DNA 1: CAATCTGAATTCCGGTCTCCC
DNA 2: TGGTGGCTACGACGGGATT
B19: AUUCGAC (DNA:RNA)
RNA: B1 RNA with U25A, C26U, A28C, A29G, U30A
DNA 1: CAATCTGAATTCCGGTCTCCC
DNA 2: TGGTGGCTACGACGGGATT
B20: CCCUAUG (DNA:RNA)
RNA: B1 RNA with U25C, U27C, A28U, C31G
DNA 1: CAATCTGAATTCCGGTCTCCC
DNA 2: TGGTGGCTACGACGGGATT

The target of the experiment is T1, RBFOX1 RRM. Briefly: EMSA; HiTS-Eq, 1 nM pool, 10 min; buffer printed only for the single-RNA assays: 10 mM Tris pH 7.5, 150 mM NaCl, 3.4 mM EDTA, 0.001% NP-40, 30 C. The note with it: tags: His6 N-terminal (pET28a); label: 5' 32P. In outline: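 A pool of RNA with 7 randomized nucleotides, 5′-radiolabelled and with DNA-annealed flanks, was equilibrated at 1 nM for 10 min in 50 µL with purified RbFox RRM, wild type or mutant, across increasing protein concentrations. Free RNA was separated by 8% native PAGE, excised, reverse-transcribed, barcoded by PCR and sequenced. Relative association constants were obtained from read-count changes of each RNA species versus the control reaction and normalised to the cognate motif.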
On the technique in general: In EMSA bound probe runs differently from free probe, usually more slowly.
For the molecule B1, the binding signal was 0.00734 KA relative to UGCAUGU. The figure for B2 is 0.0233 KA relative to UGCAUGU; for B3 it is 0.0244 KA relative to UGCAUGU. The figure for B4 is 0.0043 KA relative to UGCAUGU; for B5 it is 0.00445 KA relative to UGCAUGU. The figure for B6 is 0.0203 KA relative to UGCAUGU; for B7 it is 0.00155 KA relative to UGCAUGU; for B8 it is 0.0035 KA relative to UGCAUGU.

B9: the binding signal is 0.0238 KA relative to UGCAUGU. The figure for B10 is 0.0165 KA relative to UGCAUGU. The figure for B11 is 0.00183 KA relative to UGCAUGU.

Consider B12, for which the binding signal is 0.00658 KA relative to UGCAUGU.

As for B13, the binding signal was 0.0072 KA relative to UGCAUGU. Next, B14: 0.0189 KA relative to UGCAUGU; B15: 0.0141 KA relative to UGCAUGU; B16: 0.00999 KA relative to UGCAUGU. The figure for B17 is 0.00252 KA relative to UGCAUGU. The figure for B18 is 0.0112 KA relative to UGCAUGU; for B19 it is 0.00912 KA relative to UGCAUGU. As for B20, the binding signal was 0.0081 KA relative to UGCAUGU.
